Test [1] has as its target PF-7802-labelled proteins in ARPE-19 cells (Homo sapiens, UniProt P08729). Conditions: protein KRT7 Keratin, type II cytoskeletal 7 (P08729); one column per replicate.
Test [2] addresses PF-7802-labelled proteins in ARPE-19 cells (Homo sapiens, UniProt P09382). Conditions: protein LGALS1 Galectin-1 (P09382); replicates in separate columns.
Test [3] addresses PF-7802-labelled proteins in ARPE-19 cells (Homo sapiens, UniProt P12956). To be noted: for Median SILAC Ratio (Heavy/Light): protein XRCC6 X-ray repair cross-complementing protein 6 (P12956).
Chain of UniProt P12956 (P12956 whole entry): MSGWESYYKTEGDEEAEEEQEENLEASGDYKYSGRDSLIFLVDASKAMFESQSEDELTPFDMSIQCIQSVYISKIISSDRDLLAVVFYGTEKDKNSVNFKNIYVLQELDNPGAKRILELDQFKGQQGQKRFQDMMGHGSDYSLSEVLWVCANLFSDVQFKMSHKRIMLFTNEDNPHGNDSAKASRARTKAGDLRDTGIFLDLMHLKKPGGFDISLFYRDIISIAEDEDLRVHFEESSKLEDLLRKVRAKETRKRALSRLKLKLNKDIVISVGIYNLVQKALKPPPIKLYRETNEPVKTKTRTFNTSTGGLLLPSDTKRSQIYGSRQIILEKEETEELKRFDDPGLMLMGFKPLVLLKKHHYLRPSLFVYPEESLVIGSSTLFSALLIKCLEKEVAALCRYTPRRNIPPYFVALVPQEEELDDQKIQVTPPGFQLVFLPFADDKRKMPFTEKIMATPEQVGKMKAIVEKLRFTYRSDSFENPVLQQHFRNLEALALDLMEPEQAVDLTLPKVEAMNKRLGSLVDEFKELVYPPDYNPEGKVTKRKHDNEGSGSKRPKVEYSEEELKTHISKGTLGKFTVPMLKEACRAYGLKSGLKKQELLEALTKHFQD
For test [4], the target named is T1, PF-7802-labelled proteins in ARPE-19 cells (Homo sapiens, UniProt P31943).
T1 sequence (P31943 1-449): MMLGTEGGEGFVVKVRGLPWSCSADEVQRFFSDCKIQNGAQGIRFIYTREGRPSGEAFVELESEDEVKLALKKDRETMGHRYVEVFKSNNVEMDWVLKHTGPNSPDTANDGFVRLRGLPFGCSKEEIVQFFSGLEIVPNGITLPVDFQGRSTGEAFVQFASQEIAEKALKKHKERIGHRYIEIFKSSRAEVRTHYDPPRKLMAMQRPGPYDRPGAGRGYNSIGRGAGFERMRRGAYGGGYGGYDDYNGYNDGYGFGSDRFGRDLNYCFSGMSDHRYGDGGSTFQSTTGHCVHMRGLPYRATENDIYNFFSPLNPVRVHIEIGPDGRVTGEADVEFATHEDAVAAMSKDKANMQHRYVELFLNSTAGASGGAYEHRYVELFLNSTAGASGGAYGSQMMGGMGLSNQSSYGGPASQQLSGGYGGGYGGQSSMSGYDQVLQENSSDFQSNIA
Conditions: for Median SILAC Ratio (Heavy/Light): protein HNRNPH1 Heterogeneous nuclear ribonucleoprotein H (P31943), one column per replicate.

For test [5], the target named is PF-7802-labelled proteins in ARPE-19 cells (Homo sapiens, UniProt P36776). Conditions: protein LONP1 Lon protease homolog, mitochondrial (P36776); replicates in separate columns.
Test [6] concerns the target PF-7802-labelled proteins in ARPE-19 cells (Homo sapiens, UniProt P49257). To be noted: protein LMAN1 Protein ERGIC-53 (P49257); replicates in separate columns.
Test [7] has as its target T2, PF-7802-labelled proteins in ARPE-19 cells (Homo sapiens, UniProt P52272).
T2 sequence (P52272 1-730): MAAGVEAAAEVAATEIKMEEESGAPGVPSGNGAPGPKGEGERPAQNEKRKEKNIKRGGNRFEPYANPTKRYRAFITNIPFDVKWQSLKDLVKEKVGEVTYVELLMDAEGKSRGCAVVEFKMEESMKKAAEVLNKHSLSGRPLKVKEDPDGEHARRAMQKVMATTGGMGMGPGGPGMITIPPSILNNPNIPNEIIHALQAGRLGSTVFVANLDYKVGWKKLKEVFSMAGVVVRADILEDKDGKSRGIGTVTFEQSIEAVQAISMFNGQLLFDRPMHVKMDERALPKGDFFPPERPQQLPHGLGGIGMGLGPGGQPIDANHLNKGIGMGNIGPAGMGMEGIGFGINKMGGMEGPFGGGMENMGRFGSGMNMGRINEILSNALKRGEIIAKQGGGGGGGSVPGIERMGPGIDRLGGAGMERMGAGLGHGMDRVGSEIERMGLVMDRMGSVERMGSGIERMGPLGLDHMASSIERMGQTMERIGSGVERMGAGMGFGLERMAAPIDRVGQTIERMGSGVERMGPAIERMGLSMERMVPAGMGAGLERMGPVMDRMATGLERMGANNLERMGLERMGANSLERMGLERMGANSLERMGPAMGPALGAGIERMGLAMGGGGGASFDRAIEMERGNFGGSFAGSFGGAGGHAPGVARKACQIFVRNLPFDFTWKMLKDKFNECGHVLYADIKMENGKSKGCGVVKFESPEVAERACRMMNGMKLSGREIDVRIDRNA
To be noted: for Median SILAC Ratio (Heavy/Light): protein HNRNPM Heterogeneous nuclear ribonucleoprotein M (P52272), one column per replicate.

For test [8], the target named is PF-7802-labelled proteins in ARPE-19 cells (Homo sapiens, UniProt P68431). To be noted: protein HIST1H3J Histone H3.1 (P68431); one column per replicate.
Test [9] has as its target PF-7802-labelled proteins in ARPE-19 cells (Homo sapiens, UniProt Q07955). To be noted: SRSF1 Serine/arginine-rich splicing factor 1 (Q07955).
Chain of UniProt Q07955 (Q07955 whole entry): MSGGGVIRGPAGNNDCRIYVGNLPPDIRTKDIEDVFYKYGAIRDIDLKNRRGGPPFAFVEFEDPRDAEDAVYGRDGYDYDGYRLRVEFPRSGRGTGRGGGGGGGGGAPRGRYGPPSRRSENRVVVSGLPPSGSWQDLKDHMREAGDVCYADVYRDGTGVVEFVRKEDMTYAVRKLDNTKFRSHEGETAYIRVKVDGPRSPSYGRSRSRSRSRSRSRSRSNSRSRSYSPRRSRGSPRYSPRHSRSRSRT
The target of test [10] is PF-7802-labelled proteins in ARPE-19 cells (Homo sapiens, UniProt Q15147). Conditions: protein PLCB4 1-phosphatidylinositol 4,5-bisphosphate phosphodiesterase beta-4 (Q15147); replicates in separate columns.
Chain of UniProt Q15147 (Q15147 whole entry): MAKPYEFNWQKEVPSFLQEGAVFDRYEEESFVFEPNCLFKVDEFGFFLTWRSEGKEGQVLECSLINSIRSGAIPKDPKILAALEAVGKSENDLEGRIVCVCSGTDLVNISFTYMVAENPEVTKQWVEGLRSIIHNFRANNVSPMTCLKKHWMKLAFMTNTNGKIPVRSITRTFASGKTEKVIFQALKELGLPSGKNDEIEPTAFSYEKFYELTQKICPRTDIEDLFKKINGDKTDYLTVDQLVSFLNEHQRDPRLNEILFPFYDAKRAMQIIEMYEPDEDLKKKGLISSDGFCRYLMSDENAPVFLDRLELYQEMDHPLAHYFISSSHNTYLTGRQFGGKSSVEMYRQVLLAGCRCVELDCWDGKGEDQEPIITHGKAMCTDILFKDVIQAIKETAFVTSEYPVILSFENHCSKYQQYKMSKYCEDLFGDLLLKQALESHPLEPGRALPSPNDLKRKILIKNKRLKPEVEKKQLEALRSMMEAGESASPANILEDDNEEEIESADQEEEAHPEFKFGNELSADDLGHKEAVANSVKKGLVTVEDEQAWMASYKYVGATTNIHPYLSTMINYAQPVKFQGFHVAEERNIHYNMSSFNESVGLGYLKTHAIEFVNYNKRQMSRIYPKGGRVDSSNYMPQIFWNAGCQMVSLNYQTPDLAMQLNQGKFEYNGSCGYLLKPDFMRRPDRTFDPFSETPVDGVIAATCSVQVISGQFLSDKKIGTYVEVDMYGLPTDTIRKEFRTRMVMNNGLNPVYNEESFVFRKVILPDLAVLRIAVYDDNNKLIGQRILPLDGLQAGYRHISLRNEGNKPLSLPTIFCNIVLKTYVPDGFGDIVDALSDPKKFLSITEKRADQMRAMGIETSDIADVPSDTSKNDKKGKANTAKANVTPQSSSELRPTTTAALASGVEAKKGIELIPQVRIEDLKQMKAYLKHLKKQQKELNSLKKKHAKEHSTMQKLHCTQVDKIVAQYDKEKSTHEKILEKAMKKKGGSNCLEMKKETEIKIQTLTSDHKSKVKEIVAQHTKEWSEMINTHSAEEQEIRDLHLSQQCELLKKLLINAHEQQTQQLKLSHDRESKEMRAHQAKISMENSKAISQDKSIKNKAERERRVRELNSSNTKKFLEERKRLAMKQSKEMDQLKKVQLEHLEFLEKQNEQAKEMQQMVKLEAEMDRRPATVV
For test [11], the target named is PF-7802-labelled proteins in ARPE-19 cells (Homo sapiens, UniProt Q5BJF2). Conditions: TMEM97 Transmembrane protein 97 (Q5BJF2).
Chain of UniProt Q5BJF2 (Q5BJF2 whole entry): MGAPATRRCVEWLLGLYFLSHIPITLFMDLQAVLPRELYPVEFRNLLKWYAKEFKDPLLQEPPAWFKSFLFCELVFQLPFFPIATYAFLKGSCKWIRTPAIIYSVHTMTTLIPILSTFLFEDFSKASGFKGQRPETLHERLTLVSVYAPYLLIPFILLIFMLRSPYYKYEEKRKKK
The target of test [12] is PF-7802-labelled proteins in ARPE-19 cells (Homo sapiens, UniProt Q7Z406). Conditions: protein MYH14 Myosin-14 (Q7Z406); replicates in separate columns.
Test [13] addresses PF-7802-labelled proteins in ARPE-19 cells (Homo sapiens, UniProt Q99439). Conditions: protein CNN2 Calponin-2 (Q99439).
Chain of UniProt Q99439 (Q99439 whole entry): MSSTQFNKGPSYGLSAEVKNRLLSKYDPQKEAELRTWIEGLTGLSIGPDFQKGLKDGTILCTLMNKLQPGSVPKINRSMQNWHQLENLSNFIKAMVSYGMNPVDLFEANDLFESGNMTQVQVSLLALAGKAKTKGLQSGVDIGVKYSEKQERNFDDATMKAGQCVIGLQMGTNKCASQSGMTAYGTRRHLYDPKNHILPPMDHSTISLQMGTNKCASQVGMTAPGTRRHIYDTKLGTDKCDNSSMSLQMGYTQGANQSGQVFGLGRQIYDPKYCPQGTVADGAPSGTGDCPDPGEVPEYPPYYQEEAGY
Test [14] concerns the target PF-7802-labelled proteins in ARPE-19 cells (Homo sapiens, UniProt Q9BUF5). To be noted: TUBB6 Tubulin beta-6 chain (Q9BUF5).
Chain of UniProt Q9BUF5 (Q9BUF5 whole entry): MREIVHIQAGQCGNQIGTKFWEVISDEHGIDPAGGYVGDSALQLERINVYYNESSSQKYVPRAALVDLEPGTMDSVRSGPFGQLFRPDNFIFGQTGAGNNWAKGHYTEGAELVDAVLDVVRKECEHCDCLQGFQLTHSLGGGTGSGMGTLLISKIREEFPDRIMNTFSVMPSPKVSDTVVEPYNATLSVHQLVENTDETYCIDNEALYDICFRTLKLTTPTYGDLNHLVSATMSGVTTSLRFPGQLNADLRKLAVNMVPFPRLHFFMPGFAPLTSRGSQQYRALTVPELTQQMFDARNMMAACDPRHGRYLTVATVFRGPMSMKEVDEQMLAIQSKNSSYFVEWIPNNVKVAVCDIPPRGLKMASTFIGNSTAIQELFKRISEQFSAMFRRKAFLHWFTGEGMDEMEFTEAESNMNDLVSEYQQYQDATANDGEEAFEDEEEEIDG
The target of test [15] is PF-7802-labelled proteins in ARPE-19 cells (Homo sapiens, UniProt Q9H9B4). Conditions: SFXN1 Sideroflexin-1 (Q9H9B4).
Chain of UniProt Q9H9B4 (Q9H9B4 whole entry): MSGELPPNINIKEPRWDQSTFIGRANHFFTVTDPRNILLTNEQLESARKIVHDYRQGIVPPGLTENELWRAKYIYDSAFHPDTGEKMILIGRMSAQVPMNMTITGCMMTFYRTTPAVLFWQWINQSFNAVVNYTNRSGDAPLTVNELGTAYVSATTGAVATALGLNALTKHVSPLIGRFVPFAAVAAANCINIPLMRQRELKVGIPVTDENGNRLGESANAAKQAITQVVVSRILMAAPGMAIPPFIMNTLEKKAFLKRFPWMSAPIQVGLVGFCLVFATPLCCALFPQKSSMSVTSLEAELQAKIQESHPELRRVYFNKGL

SMILES strings stand for the structures. “And” between values parts separate entries of the source, which are not always exact repeats. Identical values can stand only once. Like-named read-outs stand apart in the source and are kept apart here.

Chain of UniProt P09382 (P09382 whole entry): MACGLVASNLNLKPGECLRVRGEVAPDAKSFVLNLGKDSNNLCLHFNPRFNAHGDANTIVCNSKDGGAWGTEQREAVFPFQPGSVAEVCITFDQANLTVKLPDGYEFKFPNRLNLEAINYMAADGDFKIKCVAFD
Chain of UniProt P08729 (P08729 whole entry): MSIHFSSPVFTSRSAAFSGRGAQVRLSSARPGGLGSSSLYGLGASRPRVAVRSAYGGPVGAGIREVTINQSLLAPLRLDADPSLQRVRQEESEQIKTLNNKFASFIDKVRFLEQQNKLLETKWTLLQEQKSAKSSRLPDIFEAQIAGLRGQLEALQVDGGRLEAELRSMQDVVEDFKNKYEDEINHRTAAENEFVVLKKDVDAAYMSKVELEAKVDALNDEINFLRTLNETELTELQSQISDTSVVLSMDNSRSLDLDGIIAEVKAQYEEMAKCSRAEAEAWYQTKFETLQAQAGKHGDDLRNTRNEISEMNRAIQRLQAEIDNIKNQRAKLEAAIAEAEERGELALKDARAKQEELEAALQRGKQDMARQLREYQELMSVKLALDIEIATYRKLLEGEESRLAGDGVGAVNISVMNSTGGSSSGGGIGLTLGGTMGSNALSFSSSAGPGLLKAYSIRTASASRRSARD

On to `CNC1CCN(C(=O)C[C@@H](Cc2ccccc2)C(=O)N[C@@H](CSC)C(=O)N[C@@H](CC2CCCCC2)[C@@H](O)C(=O)OC(C)C)CC1` [CP-108671, reference compound], for which the “Median SILAC Ratio (Heavy/Light)” value was determined as 9.803 in [1]; 0.9189 in [2]; 1.117 in [3] (replicate R1); 1.094 in test [4]; 1.098 in test [5]; 1.464 in test [6]. The “Median SILAC Ratio (Heavy/Light)” value in test [7] was 0.7504; in [8] it was 1.079; in [9], 0.979; in test [10] it was 1.2488; in [11] it was 0.2793; in test [12] it was 2.162. The “Median SILAC Ratio (Heavy/Light)” value amounted to 1.321 in test [13], 2.641 in test [14] and 2.029 in test [15]. The “SILAC ratio (DMSO/CP-108671)” value in [3] (P12956 XRCC6 X-ray repair cross-complementing protein 6) amounted to 0.90; in test [4] (P31943 HNRNPH1 Heterogeneous nuclear ribonucleoprotein H), 0.91; in test [7] (P52272 HNRNPM Heterogeneous nuclear ribonucleoprotein M), 1.33.
In the case of `Cc1cc([C@H]2C[C@H]3[C@@H](C)SC(N)=N[C@@]3(c3ccc(F)cc3F)CO2)on1` [PF-9283], the “Median SILAC Ratio (Heavy/Light)” value is 0.8663 in test [1]; 0.7965 and 1.316 and 1.9 in [2]; 1.844 in [3] (replicate R1); 0.8081 in test [3] (replicate R2); 1.267 and 0.8852 and 1.763 in test [4]; 1.403 in test [5]. In addition, the “Median SILAC Ratio (Heavy/Light)” value is 1.415 in test [6]; 0.9046 and 1.002 in test [7]; 1.208 in test [8]; 1.087 in test [9]; 1.422 in [10]; 0.5851 in test [11]. The “Median SILAC Ratio (Heavy/Light)” value in [12] was 1.841; in test [13], 0.4558; in test [14] it was 1.696 and 1.68 and 1.723; in test [15], 2.994.

These data come from publication PMC5062570 (Nature Communications, 2016).
